# Source: PubChem BioAssay AID1345082 (National Center for Advancing Translational Sciences (NCATS), 2018)
# About 4,000 (4.3%) of roughly 94,000 compounds were called active. Inconclusive results, whose numbers are uncertain, are shown with a selection of clear calls. Calls follow the shape of the dose curve; as a rule, active = well fitted inhibition curve with a large enough effect; inconclusive = small, poorly fitted or top-dose-only effect; inactive = no such curve, though single readings can be large or run the other way. Where the call is inconclusive, the potency comes from a doubtful curve fit.
# Assay: Cytotoxic Profiling in NIH 3T3 Cell Line of Diverse Libraries Using Quantitative High-Throughput Screening; also: nearly all actives have a fitted effect of over 55% in size
# Settings: NIH 3T3 viability, CellTiter-Glo ATP luminescence, 48-72 h; series mostly up to 96.7 µM
# Procedure, shortened: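 Viability of NIH 3T3 cells after 48 or 72 hr compound treatment at 37 °C was assessed by CellTiter-Glo, with luminescence imaged following a 10 min room-temperature step.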
# Potency is read from the fitted curve at half-maximal effect; tags tell the direction and shape of the fitted curve.
row,Structure (SMILES),Potency
1,Cc1ccc(C(=O)N2CCN(c3cc(-c4cccs4)[nH]n3)CC2)s1,"inconclusive: 35.5 µM [inhibitor, partial curve]"
2,COc1nc2nc(CC3CC3)n(C)c2cc1-c1ccncc1,"inconclusive: 100 µM [inhibitor, partial curve, poor fit]"
3,O=C(c1ccc2c(c1)OCO2)N1CCn2c(nn(-c3ccc(C(F)(F)F)cc3)c2=O)C1,"inconclusive: 50.1 µM [inhibitor, partial curve, poor fit]"
4,CC(C)CCN(CCC(=O)NCCc1ccccc1)C(=O)c1ccoc1,"inconclusive: 50.1 µM [inhibitor, partial curve, poor fit]"
5,Cc1cccc(NC(=O)Cn2c(N3CCc4ccccc4C3)nc(C)cc2=O)c1,"inconclusive: 50.1 µM [inhibitor, partial curve, poor fit]"
6,N#Cc1ccc(CC(=O)N2CC(CNC(=O)c3cccnc3)C3(C2)CN(c2ccccc2)C3)cc1 (centres undefined),"inconclusive: 70.8 µM [inhibitor, single point]"
7,COc1ccc(-c2ccc3c(c2)C(=O)N2CC[C@H](NC(=O)NC4CCCCC4)[C@H]2C(=O)N3)cc1,inactive
8,O=C(C1CN(C2CCCC2)C(=O)N1)N1CCN(c2ncccn2)CC1 (centres undefined),inactive
9,Cn1cc(-c2cc(=O)c3ccnc(NCc4ccc5c(c4)OCO5)c3o2)cn1,active: 25.1 µM
10,CC(C)NC(=O)c1cc2n(n1)CC(c1ccc3c(c1)OCO3)OC2 (centres undefined),"inconclusive: 50.1 µM [inhibitor, partial curve, poor fit]"
11,COc1ccc(CN2Cc3[nH]cnc3C[C@H]2C(=O)NCc2ccc(Cl)cc2)c2ccccc12,"inconclusive: 79.4 µM [inhibitor, partial curve, poor fit]"
12,COc1ccc(C(=O)N2CCOCC3(CN(Cc4cccc(C#N)c4)C3)C2)cc1OC,active: 79.4 µM
13,CCn1c(CN(C)C)nnc1C1CCN(C(=O)Cn2nc(C)cc2N)CC1,inactive
14,Cc1noc(C)c1-c1cc2cc(C(C)C)oc2c(NCCN(C)C)n1,active: 44.7 µM
15,CC(=O)Nc1ccc(-c2c(C3CC3)nn(-c3cccc(C)c3)c2OC(C)=O)cc1,inactive
16,Cc1cc(C)n(CCC(=O)N2[C@@H]3CC[C@H]2CC(NC(=O)c2ccc(F)cc2)C3)n1 (some centres undefined),inactive
17,Cc1ccc([S+](=O)([O-])N2CCCC2C(=O)N2CCC(N3Cc4ccccc4C3=O)CC2)cc1 (centres undefined),"inconclusive: 70.8 µM [inhibitor, partial curve, poor fit]"
18,Cc1noc([C@@H](C)NC(=O)C2CCCCC2)c1C(=O)O,inactive
19,CO[C@H]1C(=O)N(C2CCN(C(=O)c3cnn(C)c3)CC2)[C@H]1c1ccncc1,inactive
20,COc1ccc(-c2ccnc3nc(Cc4ccc(F)cc4)nn23)c(F)c1,"inconclusive: 39.8 µM [inhibitor, partial curve, poor fit]"
21,O=C(NCC(F)(F)F)c1ccc2c(c1)C1(CCN(CC3CC3)C1)CN2Cc1ccccc1 (centres undefined),"inconclusive: 50.1 µM [inhibitor, partial curve, poor fit]"
22,COc1ccc(C(=O)N2CCCn3nc(C)c(-c4ccccc4Oc4ccccc4)c32)cn1,"inconclusive: 22.4 µM [inhibitor, full curve]"

row,Structure (SMILES),Potency
1,CN1CCC2(C1)CN(Cc1ccccc1)c1ccc(C(=O)NC3CCCCC3)cc12 (centres undefined),"inconclusive: 56.2 µM [inhibitor, partial curve, poor fit]"
2,NCC1CCCN(Cc2ccc(-c3nc(-c4ccncc4)cc(=O)[nH]3)cc2)C1 (centres undefined),inactive
3,O=C(Nc1ccc(Oc2ccccc2)cc1)O[C@@H]1CO[C@H]2[C@@H]1OC[C@@H]2NC(=S)Nc1ccccc1,"inconclusive: 12.6 µM [inhibitor, partial curve, poor fit]"
4,O=C(NCCN[S+](=O)([O-])c1ccccc1)c1ccc(-c2cncnc2)cc1,"inconclusive: 79.4 µM [inhibitor, partial curve, poor fit]"
5,CC1(C)CNC(=O)c2nc(CCN3CCCc4ccccc43)[nH]c2C1,"inconclusive: 56.2 µM [inhibitor, partial curve, poor fit]"
6,O=C(C1CCCN1c1nccc(Nc2ccccc2F)n1)N1CCC(Cc2ccccc2)CC1 (centres undefined),active: 39.8 µM
7,O=C(c1ccc(-c2ccc(N3CCCCC3)nc2)cc1)N1CCOCC1,"inconclusive: 44.7 µM [inhibitor, partial curve, poor fit]"
8,COc1cccc(CN2CCCN(Cc3ccncc3)C(c3ccccc3)CC(=O)NCC2)c1 (centres undefined),"inconclusive: 44.7 µM [inhibitor, partial curve, poor fit]"
9,COc1cccc(CNC(=O)C2CCCN2C(=O)c2cccc(-c3cccc(OC)c3)c2)c1 (centres undefined),"inconclusive: 50.1 µM [inhibitor, partial curve, poor fit]"
10,COc1ncccc1-c1cc(C2=CCOCC2)c2cncn2c1,"inconclusive: 100 µM [inhibitor, single point]"
11,COc1ccc(C(=O)N2CCC(Cc3nc(-c4ccc(F)cc4)no3)CC2)c(OC)n1,"inconclusive: 11.2 µM [inhibitor, partial curve, poor fit]"
12,CN1CC(=O)N(c2ccccc2)Cc2c(NCCc3ccc(Cl)cc3)ncnc21,"inconclusive: 44.7 µM [inhibitor, partial curve, poor fit]"
13,COCc1ccc(C(=O)N2CCCC(CCc3cccc(OC)c3)C2)o1 (centres undefined),"inconclusive: 44.7 µM [inhibitor, partial curve, poor fit]"
14,COCC1(C(=O)N2CCN(C)C3(CCNC(=O)CC3)C2)CCC1 (centres undefined),inactive
15,COc1cccc(-c2ccccc2NC(=O)C2CCN(CC=C(C)C)CC2)c1,active: 20 µM
16,O=C1C2CN(S(=O)(=O)c3ccccc3)CCN2CCS(=O)(=O)N1C1CC1 (centres undefined),inactive
17,Cc1nn(-c2ccc(F)cc2)c(Oc2ccccc2F)c1CCC(=O)NCC1CC1,"inconclusive: 39.8 µM [inhibitor, partial curve, poor fit]"
18,Cc1cccc(-c2ccc(CN)cc2)c1,active: 31.6 µM
19,COC(=O)[C@@H]1Cc2ncn(Cc3ccc(OC)cc3)c2CN1S(=O)(=O)c1ccc(OC)cc1,"inconclusive: 44.7 µM [inhibitor, partial curve, poor fit]"
20,CN(C)S(=O)(=O)N(C)C1CCc2nn(CC3CC3)c(=O)n2CC1 (centres undefined),inactive
21,O=C(Nc1cccc(C(F)(F)F)c1)N[C@H]1CO[C@H]2[C@@H]1OC[C@@H]2n1cc(CC2CCCCC2)nn1,"inconclusive: 44.7 µM [inhibitor, partial curve, poor fit]"
22,COCC1CN(C(=O)COc2ccc(Cl)cc2C)CC12CCNCC2 (centres undefined),"inconclusive: 50.1 µM [inhibitor, partial curve, poor fit]"

row,Structure (SMILES),Potency
1,Cc1ccc(-c2ccccc2CN2CCN(C(=O)C3CCCC3)CC2)cc1Cl,"inconclusive: 44.7 µM [inhibitor, partial curve, poor fit]"
2,COc1ccc(CCC(=O)N2CCC3(CC2)NC(=O)N(c2cccc(F)c2)N3)cc1,"inconclusive: 35.5 µM [inhibitor, partial curve]"
3,CCCCNC(=O)C1c2ccccc2C(=O)N(Cc2ccccc2)C12CCCC2 (centres undefined),"inconclusive: 50.1 µM [inhibitor, partial curve, poor fit]"
4,CCOC(=O)C1(Cc2ccc(OC)cc2)CCN(C(=O)CCc2ccccc2OC)CC1,"inconclusive: 39.8 µM [inhibitor, partial curve, poor fit]"
5,COc1ccc(OC)c(-c2cc(-c3cccs3)nc3c(C)noc23)c1,"inconclusive: 35.5 µM [inhibitor, full curve]"
6,OC1CC(c2cc(NCCOCc3ccc(Cl)cc3)ncn2)C1 (centres undefined),"inconclusive: 10 µM [inhibitor, full curve]"
7,CCc1ccc(C(=O)NC2CCN(c3cc(-c4ccc(OC)cc4)[nH]n3)CC2)cc1,"inconclusive: 44.7 µM [inhibitor, partial curve, poor fit]"
8,COc1ccc(C(=O)N[C@@H]2CCC[C@@H]2C(=O)NCc2cc(F)cc(F)c2)cn1,inactive
9,O=C(NCc1ccccc1)c1cnc2n1CCN(CCCc1ccccc1)CC2,active: 25.1 µM
10,COc1ccc(C(=O)Nc2cc(-c3cccnc3)nn2-c2ccccc2)cc1,"inconclusive: 70.8 µM [inhibitor, single point]"
11,COc1cc(Cl)c(C)cc1NC(=O)CN1C(=O)C(c2ccccc2)=NC12CCCC2,"inconclusive: 50.1 µM [inhibitor, partial curve, poor fit]"
12,COc1cccc(CN2CCC3(CC2)Cc2ccccc2NC3=O)c1,"inconclusive: 44.7 µM [inhibitor, partial curve, poor fit]"
13,O=S1(=O)CCC(S(=O)(=O)Nc2ccc(F)cc2)C1 (centres undefined),inactive
14,COc1ccc(C2(C(=O)NCc3cccc(N)c3)CCOCC2)cc1,inactive
15,COc1ccc([C@H]2CN(C(=O)c3ccc(C#CC(C)(C)O)cc3)C[C@@H]2N)cc1,inactive
16,NCc1ccc(-c2ccc(F)cc2F)cc1,"inconclusive: 89.1 µM [inhibitor, partial curve, poor fit]"
17,COc1cc(C)ccc1OCC(=O)c1ccc2c(c1)N(CC(=O)N1CCCC1)C(=O)CO2,inactive
18,O=C(NC1CC1)C1COC2(CCN(C(=O)c3ccc(Cl)cc3)CC2)N1C(=O)c1cccc(F)c1 (centres undefined),"inconclusive: 50.1 µM [inhibitor, partial curve, poor fit]"
19,O[C@@H]1CCN(Cc2nc(C3(O)CCN(CC4CCCCC4)CC3)cs2)C1,inactive
20,COc1cc(Cl)ccc1C(=O)N1CCN(c2cc(C(F)(F)F)ncn2)CC1,"inconclusive: 15.8 µM [inhibitor, full curve, poor fit]"
